Test results as given in the supplement of paper PMC8728848.
The list shows a part of the results.

What was measured:
Experiment in all cases: glycan array binding signal (z-score within array); higher = stronger binding
Conditions in all cases: glycan notation: IUPAC condensed, linker removed
[1] = biological target: Neu5Ac(a2-3)[Neu5Ac(a2-6)]GalNAc
Summary of the method: (§1)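 Glycan array data were curated from 3228 arrays in the Consortium for Functional Glycomics database and kept only where the protein sequence was available. Glycan names were converted to IUPAC-condensed notation, and columns mapping to the same glycan were averaged. The binding signal is a within-array Z-score, averaged across arrays of the same protein sequence at different concentrations or buffers and across linkers. Negative Z-scores can be read as non-binding.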

[2] = biological target: Neu5Ac(a2-6)Gal
Summary of the method: as §1

[3] = biological target: Neu5Ac(a2-6)Gal(b1-4)Glc
Summary of the method: as §1

[4] = biological target: Neu5Ac(a2-6)Gal(b1-4)GlcNAc
Summary of the method: as §1

[5] = biological target: Neu5Ac(a2-6)Gal(b1-4)GlcNAc(b1-2)Man(a1-3)Man(b1-4)GlcNAc(b1-4)GlcNAc
Summary of the method: as §1

[6] = biological target: Neu5Ac(a2-6)Gal(b1-4)GlcNAc(b1-2)Man(a1-3)[Gal(b1-4)GlcNAc(b1-2)Man(a1-6)]Man(b1-4)GlcNAc(b1-4)GlcNAc
Summary of the method: as §1

[7] = biological target: Neu5Ac(a2-6)Gal(b1-4)GlcNAc(b1-2)Man(a1-3)[GlcNAc(b1-2)Man(a1-6)]Man(b1-4)GlcNAc(b1-4)GlcNAc
Summary of the method: as §1

[8] = biological target: Neu5Ac(a2-6)Gal(b1-4)GlcNAc(b1-2)Man(a1-3)[GlcNAc(b1-2)Man(b1-4)GlcNAc(b1-2)Man(a1-6)]Man(b1-4)GlcNAc(b1-4)GlcNAc
Summary of the method: as §1

[9] = biological target: Neu5Ac(a2-6)Gal(b1-4)GlcNAc(b1-2)Man(a1-3)[Man(a1-6)]Man(b1-4)GlcNAc(b1-4)GlcNAc
Summary of the method: as §1

[10] = biological target: Neu5Ac(a2-6)Gal(b1-4)GlcNAc(b1-2)Man(a1-3)[Neu5Ac(a2-6)Gal(b1-4)GlcNAc(b1-2)Man(a1-6)]Man(b1-4)GlcNAc(b1-4)GlcNAc
Summary of the method: as §1

[11] = biological target: Neu5Ac(a2-6)Gal(b1-4)GlcNAc(b1-2)Man(a1-6)Man(b1-4)GlcNAc(b1-4)GlcNAc
Summary of the method: as §1

[12] = biological target: Neu5Ac(a2-6)Gal(b1-4)GlcNAc(b1-2)Man(a1-6)[Gal(b1-4)GlcNAc(b1-2)Man(a1-3)]Man(b1-4)GlcNAc(b1-4)GlcNAc
Summary of the method: as §1

[13] = biological target: Neu5Ac(a2-6)Gal(b1-4)GlcNAc(b1-2)Man(a1-6)[GlcNAc(b1-2)Man(a1-3)]Man(b1-4)GlcNAc(b1-4)GlcNAc
Summary of the method: as §1

[14] = biological target: Neu5Ac(a2-6)Gal(b1-4)GlcNAc(b1-2)Man(a1-6)[Man(a1-3)]Man(b1-4)GlcNAc(b1-4)GlcNAc
Summary of the method: as §1

[15] = biological target: Neu5Ac(a2-6)Gal(b1-4)GlcNAc(b1-3)Gal(b1-3)GlcNAc
Summary of the method: as §1

[16] = biological target: Neu5Ac(a2-6)Gal(b1-4)GlcNAc(b1-3)Gal(b1-4)GlcNAc
Summary of the method: as §1

[17] = biological target: Neu5Ac(a2-6)Gal(b1-4)GlcNAc(b1-3)Gal(b1-4)GlcNAc(b1-3)Gal(b1-4)GlcNAc
Summary of the method: as §1

[18] = biological target: Neu5Ac(a2-6)Gal(b1-4)GlcNAc(b1-3)Gal(b1-4)[Fuc(a1-3)]GlcNAc(b1-3)Gal(b1-4)[Fuc(a1-3)]GlcNAc
Summary of the method: as §1

[19] = biological target: Neu5Ac(a2-6)Gal(b1-4)GlcNAc(b1-3)GalNAc
Summary of the method: as §1

[20] = biological target: Neu5Ac(a2-6)Gal(b1-4)GlcNAc6S
Summary of the method: as §1

[21] = biological target: Neu5Ac(a2-6)GalNAc
Summary of the method: as §1

[22] = biological target: Neu5Ac(a2-6)GalNAc(b1-4)GlcNAc
Summary of the method: as §1

[23] = biological target: Neu5Ac(a2-6)GlcNAc(b1-4)GlcNAc
Summary of the method: as §1

[24] = biological target: Neu5Ac(a2-6)GlcNAc(b1-4)GlcNAc(b1-4)GlcNAc
Summary of the method: as §1

[25] = biological target: Neu5Ac(a2-8)Neu5Ac
Summary of the method: as §1

[26] = biological target: Neu5Ac(a2-8)Neu5Ac(a2-3)Gal(b1-4)Glc
Summary of the method: as §1

[27] = biological target: Neu5Ac(a2-8)Neu5Ac(a2-3)[GalNAc(b1-4)]Gal(b1-4)Glc
Summary of the method: as §1

[28] = biological target: Neu5Ac(a2-8)Neu5Ac(a2-8)Neu5Ac
Summary of the method: as §1

[29] = biological target: Neu5Ac(a2-8)Neu5Ac(a2-8)Neu5Ac(a2-3)Gal(b1-4)Glc
Summary of the method: as §1

[30] = biological target: Neu5Ac(a2-8)Neu5Ac(a2-8)Neu5Ac(a2-3)[GalNAc(b1-4)]Gal(b1-4)Glc
Summary of the method: as §1

[31] = biological target: Neu5Ac(a2-8)Neu5Ac(a2-8)Neu5Ac(a2-8)Neu5Ac(a2-3)[GalNAc(b1-4)]Gal(b1-4)Glc
Summary of the method: as §1

[32] = biological target: Neu5Ac(b2-6)Gal(b1-4)GlcNAc
Summary of the method: as §1

[33] = biological target: Neu5Ac(b2-6)GalNAc
Summary of the method: as §1

[34] = biological target: Neu5Ac9Ac(a2-3)Gal(b1-3)GlcNAc
Summary of the method: as §1

[35] = biological target: Neu5Ac9Ac(a2-3)Gal(b1-4)GlcNAc
Summary of the method: as §1

[36] = biological target: Neu5Ac9Ac(a2-6)Gal(b1-4)GlcNAc
Summary of the method: as §1

[37] = biological target: Neu5Gc(a2-3)Gal(b1-3)GlcNAc
Summary of the method: as §1

[38] = biological target: Neu5Gc(a2-3)Gal(b1-3)[Fuc(a1-4)]GlcNAc
Summary of the method: as §1

[39] = biological target: Neu5Gc(a2-3)Gal(b1-4)Glc
Summary of the method: as §1

[40] = biological target: Neu5Gc(a2-3)Gal(b1-4)GlcNAc
Summary of the method: as §1

[41] = biological target: Neu5Gc(a2-3)Gal(b1-4)[Fuc(a1-3)]GlcNAc
Summary of the method: as §1

[42] = biological target: Neu5Gc(a2-6)Gal(b1-4)GlcNAc
Summary of the method: as §1

[43] = biological target: Neu5Gc(a2-6)GalNAc
Summary of the method: as §1

[44] = biological target: Neu5Gc(b2-6)Gal(b1-4)GlcNAc
Summary of the method: as §1

B1: StdA (Salmonella typhimurium), Q8Z3Z0 (protein)
chain: MAAAGMMYGASVFAADTTPTAGPFGSGKILFTGTITNSPCDIAPGDDAITVPFGQISYRKLNTANATTDSKPFTIHLQNCAFDPNETTIAGSAGKMSKVTVSFSGTADTSGKAYVSTGSAQHVGVQLLKGDNTSLITPNTPMPDGDAQQLQAGNNELNFFARLIALTDAATPGDVNASVTYTLKYL
[1]
  glycan array binding signal (z-score): 0.634
[2]
  glycan array binding signal (z-score): -0.305
[3]
  glycan array binding signal (z-score): -0.257
[4]
  glycan array binding signal (z-score): -0.291
[5]
  glycan array binding signal (z-score): -0.009
[6]
  glycan array binding signal (z-score): -0.251
[7]
  glycan array binding signal (z-score): 0.231
[8]
  glycan array binding signal (z-score): 0.147
[9]
  glycan array binding signal (z-score): -0.785
[10]
  glycan array binding signal (z-score): -0.397
[11]
  glycan array binding signal (z-score): -0.008
[12]
  glycan array binding signal (z-score): 0.283
[13]
  glycan array binding signal (z-score): 0.085
[14]
  glycan array binding signal (z-score): 0.054
[15]
  glycan array binding signal (z-score): -0.819
[16]
  glycan array binding signal (z-score): -0.14
[17]
  glycan array binding signal (z-score): -0.081
[18]
  glycan array binding signal (z-score): 0.009
[19]
  glycan array binding signal (z-score): 0.149
[20]
  glycan array binding signal (z-score): -0.558
[21]
  glycan array binding signal (z-score): -0.979
[22]
  glycan array binding signal (z-score): -0.061
[23]
  glycan array binding signal (z-score): -0.256
[24]
  glycan array binding signal (z-score): 0.072
[25]
  glycan array binding signal (z-score): -0.449
[26]
  glycan array binding signal (z-score): -0.042
[27]
  glycan array binding signal (z-score): -0.722
[28]
  glycan array binding signal (z-score): -0.667
[29]
  glycan array binding signal (z-score): 0.246
[30]
  glycan array binding signal (z-score): -0.401
[31]
  glycan array binding signal (z-score): -0.385
[32]
  glycan array binding signal (z-score): -0.717
[33]
  glycan array binding signal (z-score): -0.236
[34]
  glycan array binding signal (z-score): -0.687
[35]
  glycan array binding signal (z-score): -0.108
[36]
  glycan array binding signal (z-score): 1.09
[37]
  glycan array binding signal (z-score): -0.054
[38]
  glycan array binding signal (z-score): -0.195
[39]
  glycan array binding signal (z-score): 0.825
[40]
  glycan array binding signal (z-score): -0.622
[41]
  glycan array binding signal (z-score): -0.554
[42]
  glycan array binding signal (z-score): -0.03
[43]
  glycan array binding signal (z-score): -0.486
[44]
  glycan array binding signal (z-score): 0.201
